About 800 (1.6%) of roughly 50,000 compounds showed an effect of 50% or more. The list shows a part of the results.
Target: Bcl-2-like protein 10 (Homo sapiens) (UniProt Q9HD36)
Test: Phenotype converters, Bcl-B/TR3 peptide binding displacement, primary biochemical FP (AID 1240);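 further: 0% = Bcl-B with tracer peptide and DMSO and 100% = tracer peptide lacking Bcl-B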
Conditions: GST-Bcl-B / FITC-TR3 peptide fluorescence polarization; stronger effect = higher value; compound at 3.75 mg/L

Sequence of UniProt Q9HD36 (Q9HD36 whole entry, looked up): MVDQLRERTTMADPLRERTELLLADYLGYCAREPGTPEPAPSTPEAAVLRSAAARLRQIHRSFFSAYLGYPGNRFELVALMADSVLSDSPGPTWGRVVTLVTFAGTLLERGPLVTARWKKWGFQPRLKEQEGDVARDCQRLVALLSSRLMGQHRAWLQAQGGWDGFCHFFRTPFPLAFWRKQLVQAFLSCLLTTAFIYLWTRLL

Structure (SMILES) | displacement [%]
C=CCOc1ccc(/C=C2\C(=O)N(C)C(C)=C2C(=O)OC)cc1OC | 8.8
Cc1ccc(OCC(=O)NCc2ccncc2)c(Br)c1 | -3.1
COc1ccc(CN=Cc2c(O)n(-c3ccc(OC)cc3)c(=O)[nH]c2=O)cc1 | -3.4
CC(=O)N1c2ccccc2NC2=C(C(=O)CC(C)(C)C2)C1c1c(F)cccc1Cl (stereo not drawn) | 4.9
CN1CCN(C(=S)SCCN2CCCC2=O)CC1 | -5.4
COc1ccc(C(=O)NC(=S)Nc2ccc(S(=O)(=O)N=C(N)N)cc2)cc1 | 9
Cc1ccc(C)c(S(=O)(=O)Nc2ccc3oc4c(c3c2)C(=O)CCC4)c1 | 9.8
CCOc1ccc(C(=O)Nc2ccc(-c3nc4ccccc4s3)c(O)c2)cc1Cl | 3.9
O=C(O)c1ccc(NC(=O)c2ccccc2NC(=O)c2ccccc2Cl)cc1 | 11.9
O=C(COC(=O)c1ccccc1Nc1ccccc1)c1cccc([N+](=O)[O-])c1 | -20.8
CC1CC(Nc2ccccc2)c2ccccc2N1C(=O)Nc1cccc(Cl)c1 (stereo not drawn) | 13.7
COc1cc(/C=N/NC(=O)COc2cccc(C)c2)ccc1OC(=O)c1ccco1 | 7.2
Clc1ccc(CN2CCN(/N=C/C=C\c3ccco3)CC2)cc1 | -6.7
NS(=O)(=O)c1ccc(N=Cc2ccc[nH]2)cc1 | 0.3
O=C1C2C3C=CC(C3)C2C(=O)N1/N=C/c1ccc2c(c1)OCO2 (stereo not drawn) | 5.8
CCOC(=O)C(C#N)C(=O)c1ccc(N2C(=O)c3ccccc3C2=O)cc1 (stereo not drawn) | 11.8
COc1ccccc1NN=c1c(=O)c2ccccc2c1=O | 31.9
Cc1ccccc1OCC(=O)Nc1cccc(NC(=O)c2ccco2)c1 | 6.7
COCCOC(=O)C1=C(C)NC(=O)CC1c1ccccc1OCc1ccccc1 (stereo not drawn) | 14.1
O=[N+]([O-])c1cc(/C=N/N2CCN(c3ccccc3)CC2)ccc1Cl | -6.1
CCN(CC)c1ccc(/C=N/NC(=O)c2nonc2N)c(OCc2ccc(Cl)cc2)c1 | -2.6
COc1ccc2c(c1OC)C(=O)OC2Nc1cc(C)ccc1O (stereo not drawn) | -5.3
CN(C)C(=O)c1ccc(CN2CCc3ccccc3C2)cc1 | -15

Structure (SMILES) | displacement [%]
O=C(NCCO)C(=O)Nc1ccc(Oc2ccccc2)cc1 | 3.9
COc1ccc(N2Cc3ccc(C(=O)NN)cc3C2)cc1 | -29.2
COc1ccc(OC)c(C2NC(=S)NC(C)=C2C(=O)Nc2ccc(C)cc2)c1 (stereo not drawn) | 5.7
Cc1ccc(C=Nc2ccc3c(c2)Cc2cc([N+](=O)[O-])ccc2-3)cc1 | -27.4
O=C1CCCC2=C1C(c1ccc([N+](=O)[O-])cc1)C1C(=O)c3ccccc3C1=N2 (stereo not drawn) | -0.3
Cc1ccc(NC(=O)CSc2nc3ccc(N)cc3s2)cc1Cl | -27.7
COCCOC(=O)c1c(C)oc2ccc(NS(=O)(=O)c3ccc(C)cc3)cc12 | 4.1
Cc1ccccc1NC(=O)c1c(NC(=O)c2cccc(Br)c2)sc2c1CCCC2 | -14.5
CC(C)CC1C(C#N)=C(N)Oc2n[nH]c(-c3ccccc3)c21 (stereo not drawn) | -7.9
C(=N\n1cnnc1)/c1cn(CCOc2ccc(C3CCCCC3)cc2)c2ccccc12 | -10.2
CC(NS(=O)(=O)N(C)C)c1ccc(-c2ccccc2)cc1 (stereo not drawn) | 9.1
CC1CCN(c2nc(-c3ccccc3)nc3ccccc23)CC1 | 1.4
COc1cc(/C=C2/SC(=S)N(CC(=O)O)C2=O)ccc1OCc1ccccc1F | -20
NC(=O)/C(=C\c1ccc2c(c1)OCO2)NC(=O)c1ccco1 | -10.5
Cc1ccc(NC2CC(C)N(C(=O)CN3C(=O)c4ccccc4C3=O)c3ccc(C)cc32)cc1 (stereo not drawn) | 1.4
CCCCOc1cccc(C(=O)Nc2ccc(N3CCN(C(C)=O)CC3)cc2)c1 | 0.6
CCCC1=NN2C(=N)/C(=C/c3ccc4c(c3)OCO4)C(=O)N=C2S1 | -6
O=C(Nc1nc2ccc(Cl)cc2s1)c1ccccc1[N+](=O)[O-] | -4.1
CC(C)Oc1ccc(C2CC(=O)N(c3cccc(/C=C/C(=O)O)c3)C2=O)cc1 (stereo not drawn) | -2.2
COC(=O)c1c(N)sc2c1CCCCCC2 | -12.3
O=c1oc(-c2cccc(F)c2)nc2c1cnn2-c1ccccc1 | 0.8
C=CCC1(N(C(C)=O)c2ccccc2C)CCCCC1 | -2.8
CCOC(=O)c1ccc(-n2c(-c3ccco3)nc3ccccc3c2=O)cc1 | 4.6

Structure (SMILES) | displacement [%]
Cc1ccc(NC(=O)CN(c2ccc(Br)cc2)S(C)(=O)=O)cc1 | -1.2
CCCOC(=O)Nc1ccc(S(=O)(=O)Nc2ncccn2)cc1 | 11.6
Cn1c(=O)c2c(nc(Sc3ncn[nH]3)n2C)n(C)c1=O | 19.4
CCN1C(=O)/C(=C/c2c(Cl)cccc2Cl)SC1=S | 0.8
CC1=NN(C(=O)c2ccccc2Cl)C(O)(C(F)(F)F)C1 (stereo not drawn) | -7.4
CCOC(=O)c1cnn2c(C)cc(-c3ccccc3)nc12 | 5.6
O=C(c1ccc(-c2ccccc2)cc1)N1CCN(C2CC3CCC2C3)CC1 (stereo not drawn) | -11.5
CC(=O)N(C)c1ccc(NC(=O)c2ccccc2[N+](=O)[O-])cc1 | -4
Nc1ccc2nc(Sc3nc4ccc([N+](=O)[O-])cc4s3)sc2c1 | -15.1
Cc1cc(C)c(NS(=O)(=O)c2cccc3c2C(=O)c2ccccc2C3=O)c(C)c1 | -2.4
COc1cc(C2C(C(=O)OCc3ccccc3)=C(C)NC(C)=C2C(=O)OCc2ccccc2)ccc1O | -15
O=C(NCc1cccnc1)c1ccc(C#Cc2ccccc2)cc1 | -5.9
Cc1cc(C)c(N=Cc2c(C)[nH]n(-c3ccccc3)c2=S)c(C)c1 | 13.7
COc1ccc(C2CC(=O)C3=C(C2)Nc2ccccc2NC3c2ccc([N+](=O)[O-])cc2)cc1OC (stereo not drawn) | 1.1
CCc1cc(=O)oc2cc(OCC(=O)OC(C)C)ccc12 | 0
NS(=O)(=O)c1ccc(NC(=S)NC(=O)c2sc3cc(F)ccc3c2Cl)cc1 | 12.7
COc1ccc(OC)c(C2/C(=C(\O)c3ccccc3)C(=O)C(=O)N2c2cccnc2)c1 (stereo not drawn) | 16.5
CCCCC1(O)CC(c2ccc(OC)cc2)NC(c2ccc(OC)cc2)C1C (stereo not drawn) | 6.6
CC(=O)N1CCN(c2ccc([N+](=O)[O-])cc2Cl)CC1C (stereo not drawn) | 15
COc1ccc(/C(O)=C2/C(=O)C(=O)N(CCCCCC(=O)O)C2c2ccc(F)cc2)cc1 (stereo not drawn) | -17.7
Cc1ccccc1OCCCN1CCC(C)CC1 | 15.1
Cc1ccc(Nc2nc(-c3ccc(S(=O)(=O)N4CCOCC4)cc3)cs2)cc1Cl | -2.9
